# In patent US11230543B2, “Biaryl monobactam compounds and methods of use thereof for the treatment of bacterial infections” (priority 2015, dated 2022):
# Counter-ions that a name gives are not always drawn. The name of at least one read-out is uncertain.
# Columns and labels:
# [1] = system: Acinetobacter baumannii expressing TEM-1, AmpC, and Oxa-24/40 (CL6188); experiment: Antibiotic activity: growth inhibitory concentration (OD600), Acinetobacter baumannii CL6188; assay type: cell-based; details: lowest concentration inhibiting 95% of bacterial growth; in the presence of β lactamase inhibitor Relebactam 4 μg/mL; 35±2° C. for 22 hours; tested range 100 μM to 0.098 μM
# Method in brief: (§1)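 Growth inhibition by OD600 after 22 hours incubation at 35±2° C, reported as lowest concentration inhibiting 95% of growth (MITC95). Final compound range 100 μM to 0.098 μM, always combined with β-lactamase inhibitor relebactam (4 μg/mL final); inoculum ~2×10^5 CFU/mL in cation-adjusted Mueller-Hinton II broth.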
# [2] = system: Escherichia coli expressing NDM-1 (CLB30016); experiment: Antibiotic activity: growth inhibitory concentration (OD600), Escherichia coli CLB30016; assay type: cell-based; details: lowest concentration inhibiting 95% of bacterial growth; in the presence of β lactamase inhibitor Relebactam 4 μg/mL; 35±2° C. for 22 hours; tested range 100 μM to 0.098 μM
# Method in brief: as §1
SMILES,AB_CL6188 MITC95 [1],EC_CLB30016 MITC95 [2]
"CC1(C)[C@H](NC(=O)/C(=N\O[C@@](C)(COc2ccc(C3CN=C(NCCN)NC3)cc2)C(=O)O)c2csc(N)n2)C(=O)N1OS(=O)(=O)O (stereo partly drawn) [Example 95, (2S)-3-(4-(2-((2-aminoethyl)amino)-1,4,5,6-tetrahydropyrimidin-5-yl)phenoxy)-2-((((Z)-1-(2-aminothiazol-4-yl)-2-(((S)-2,2-dimethyl-4-oxo-1-(sulfooxy)azetidin-3-yl)amino)-2-oxoethylidene)amino)oxy)-2-methylpropanoic acid]",12.5 µM,25 µM
"C[n+]1cc(-c2ccc(NCC(O/N=C(\C(=O)N[C@@H]3C(=O)N(OS(=O)(=O)[O-])C3(C)C)c3csc(N)n3)C(=O)O)cc2)cn1CCCN (stereo partly drawn) [Example 91, (3S)-3-(2-((2-((4-(1-(3-aminopropyl)-2-methyl-1H-pyrazol-2-ium-4-yl)phenyl)amino)-1-carboxyethoxy)imino)-2-(2-aminothiazol-4-yl)acetamido)-2,2-dimethyl-4-oxoazetidin-1-yl sulfate]",6.25 µM,25 µM
"CC1(C)[C@H](NC(=O)/C(=N\O[C@@H](COc2ccc(-n3ccn(CCCN)c3=N)nc2)C(=O)O)c2csc(N)n2)C(=O)N1OS(=O)(=O)O [Example 118, (S)-3-((6-(3-(3-aminopropyl)-2-imino-2,3-dihydro-1H-imidazol-1-yl)pyridin-3-yl)oxy)-2-((((Z)-1-(2-aminothiazol-4-yl)-2-(((S)-2,2-dimethyl-4-oxo-1-(sulfooxy)azetidin-3-yl)amino)-2-oxoethylidene)amino)oxy)propanoic acid]",6.25 µM,6.25 µM
"C[n+]1cc(-c2ccc(OC[C@H](O/N=C(\C(=O)N[C@@H]3C(=O)N(OS(=O)(=O)[O-])C3(C)C)c3csc(N)n3)C(=O)O)cc2)ccc1NCCN [Example 66, (S)-3-((Z)-2-(((S)-2-(4-(6-((2-aminoethyl)amino)-1-methylpyridin-1-ium-3-yl)phenoxy)-1-carboxyethoxy)imino)-2-(2-aminothiazol-4-yl)acetamido)-2,2-dimethyl-4-oxoazetidin-1-yl sulfate]",1.708 µM,1.708 µM
"C[n+]1cc(-c2ccc(OC[C@H](O/N=C(\C(=O)N[C@@H]3C(=O)N(OS(=O)(=O)O)C3(C)C)c3csc(N)n3)C(=O)O)cc2)ccc1CCCN [Example 88, (S)-3-((Z)-2-(((S)-2-(4-(6-(3-aminopropyl)-1-methylpyridin-1-ium-3-yl)phenoxy)-1-carboxyethoxy)imino)-2-(2-aminothiazol-4-yl)acetamido)-2,2-dimethyl-4-oxoazetidin-1-yl sulfate]",1.563 µM,3.125 µM
"C[C@H]1[C@H](NC(=O)/C(=N\O[C@@H](COc2ccc(-c3cnn(CCCN)c3)cc2)C(=O)O)c2csc(N)n2)C(=O)N1S(=O)(=O)O [Example 6, (S)-3-(4-(1-(3-aminopropyl)-1H-pyrazol-4-yl)phenoxy)-2-((((Z)-1-(2-aminothiazol-4-yl)-2-(((2S,3S)-2-methyl-4-oxo-1-sulfoazetidin-3-yl)amino)-2-oxoethylidene)amino)oxy)propanoic acid]",100 µM,100 µM
"Cc1cn(CCCN)[n+](C)c1-c1ccc(OC[C@H](O/N=C(\C(=O)N[C@@H]2C(=O)N(OS(=O)(=O)O)C2(C)C)c2csc(N)n2)C(=O)O)cc1.O=C([O-])C(F)(F)F [Example 19, 1-(3-aminopropyl)-3-(4-((S)-2-((((Z)-1-(2-aminothiazol-4-yl)-2-(((S)-2,2-dimethyl-4-oxo-1-(sulfooxy)azetidin-3-yl)amino)-2-oxo-ethylidene)amino)oxy)-2-carboxyethoxy)phenyl)-2,4-dimethyl-1H-pyrazol-2-ium 2,2,2-trifluoroacetate]",12.5 µM,6.25 µM
"C[n+]1cc(-c2ccc(OC[C@H](O/N=C(\C(=O)N[C@@H]3C(=O)N(OS(=O)(=O)O)C3(C)C)c3csc(N)n3)C(=O)O)cc2F)cn1CC(O)CN.O=CO (stereo partly drawn) [Example 44, (3S)-3-((Z)-2-(((1S)-2-(4-(1-(3-amino-2-hydroxypropyl)-2-methyl-1H-pyrazol-2-ium-4-yl)-3-fluorophenoxy)-1-carboxyethoxy)imino)-2-(2-aminothiazol-4-yl)acetamido)-2,2-dimethyl-4-oxoazetidin-1-yl sulfate compound with formic acid (1:1)]",1.563 µM,3.125 µM
"C[n+]1c(-c2ccc(OC[C@H](O/N=C(\C(=O)N[C@@H]3C(=O)N(OS(=O)(=O)O)C3(C)C)c3csc(N)n3)C(=O)O)cc2)ccn1CCCN.O=C([O-])C(F)(F)F [Example 18, 1-(3-aminopropyl)-3-(4-((S)-2-((((Z)-1-(2-aminothiazol-4-yl)-2-(((S)-2,2-dimethyl-4-oxo-1-(sulfooxy)azetidin-3-yl)amino)-2-oxo-ethylidene)amino)oxy)-2-carboxyethoxy)phenyl)-2-methyl-1H-pyrazol-2-ium 2,2,2-trifluoroacetate]",3.125 µM,6.25 µM
"C[n+]1cc(-c2ccc(OC(CO/N=C(\C(=O)N[C@@H]3C(=O)N(OS(=O)(=O)[O-])C3(C)C)c3csc(N)n3)C(=O)O)cc2)cn1CCCN (single isomer, unassigned) [Example 85]",10 µM,40 µM
"C[n+]1cc(-c2ccc(OC[C@H](O/N=C(\C(=O)N[C@@H]3C(=O)N(OS(=O)(=O)[O-])C3(C)C)c3csc(N)n3)C(=O)O)nn2)cn1CCCN [Example 106, (S)-3-((Z)-2-(((S)-2-((6-(1-(3-aminopropyl)-2-methyl-1H-pyrazol-2-ium-4-yl)pyridazin-3-yl)oxy)-1-carboxyethoxy)imino)-2-(2-aminothiazol-4-yl)acetamido)-2,2-dimethyl-4-oxoazetidin-1-yl sulfate]",100 µM,100 µM
"C[n+]1cc(-c2ccc(OC[C@H](O/N=C(\C(=O)N[C@@H]3C(=O)N(OS(=O)(=O)[O-])C3(C)C)c3csc(N)n3)C(=O)O)cc2)cn1CCCN [Example 1, (S)-3-((Z)-2-(2-aminothiazol-4-yl)-2-(((S)-2-(4-(1-(3-ammoniopropyl)-2-methyl-1H-pyrazol-2-ium-4-yl)phenoxy)-1-carboxyethoxy)imino)acetamido)-2,2-dimethyl-4-oxoazetidin-1-yl sulfate 2,2,2-trifluoroacetate]",2.734 µM,4.688 µM
"C[n+]1c(N)c(-c2ccc(OC[C@H](O/N=C(\C(=O)N[C@@H]3C(=O)N(OS(=O)(=O)[O-])C3(C)C)c3csc(N)n3)C(=O)O)cc2F)cn1CCCN [Example 47, (S)-3-((Z)-2-(((S)-2-(4-(3-Amino-1-(3-aminopropyl)-2-methyl-1H-pyrazol-2-ium-4-yl)-3-fluorophenoxy)-1-carboxyethoxy)imino)-2-(2-aminothiazol-4-yl)acetamido)-2,2-dimethyl-4-oxoazetidin-1-yl sulfate]",3.125 µM,3.125 µM
"C[n+]1cc(-c2ccc(OC(CO/N=C(\C(=O)N[C@@H]3C(=O)N(OS(=O)(=O)[O-])C3(C)C)c3csc(N)n3)C(=O)O)cc2)cn1CCCN (stereo partly drawn) [Example 84, (3S)-3-((2-(4-(1-(3-aminopropyl)-2-methyl-1H-pyrazol-2-ium-4-yl)phenoxy)-2-carboxyethoxy)imino)-2-(2-aminothiazol-4-yl)acetamido)-2,2-dimethyl-4-oxoazetidin-1-yl sulfate]",10 µM,40 µM
"Cc1c(-c2ccc(OC[C@H](O/N=C(\C(=O)N[C@@H]3C(=O)N(OS(=O)(=O)O)C3(C)C)c3csc(N)n3)C(=O)O)cc2)c(C)[n+](C)n1CCCN.O=C([O-])C(F)(F)F [Example 20, 1-(3-aminopropyl)-4-(4-((S)-2-((((Z)-1-(2-aminothiazol-4-yl)-2-(((S)-2,2-dimethyl-4-oxo-1-(sulfooxy)azetidin-3-yl)amino)-2-oxo-ethylidene)amino)oxy)-2-carboxyethoxy)phenyl)-2,3,5-trimethyl-1H-pyrazol-2-ium 2,2,2-trifluoroacetate]",6.25 µM,6.25 µM
"C[n+]1c(N)c(-c2ccc(OC[C@H](O/N=C(\C(=O)N[C@@H]3C(=O)N(OS(=O)(=O)[O-])C3(C)C)c3csc(N)n3)C(=O)O)cc2)cn1CCCN [Example 28, (S)-3-((Z)-2-(((S)-2-(4-(3-Amino-1-(3-aminopropyl)-2-methyl-1H-pyrazol-2-ium-4-yl)phenoxy)-1-carboxyethoxy)imino)-2-(2-aminothiazol-4-yl)acetamido)-2,2-dimethyl-4-oxoazetidin-1-yl sulfate]",3.13 µM,6.25 µM
"CC1(C)[C@H](NC(=O)/C(=N\O[C@@H](COc2cnc(-n3cc[n+](CCCN)c3)nc2)C(=O)O)c2csc(N)n2)C(=O)N1OS(=O)(=O)[O-] [Example 111, (S)-3-((Z)-2-(((S)-2-((2-(3-(3-aminopropyl)-1H-imidazol-3-ium-1-yl)pyrimidin-5-yl)oxy)-1-carboxyethoxy)imino)-2-(2-aminothiazol-4-yl)acetamido)-2,2-dimethyl-4-oxoazetidin-1-yl sulfate]",25 µM,50 µM
"Cc1cc(-c2ccc(OC[C@H](O/N=C(\C(=O)N[C@@H]3C(=O)N(OS(=O)(=O)O)C3(C)C)c3csc(N)n3)C(=O)O)cc2)[n+](C)n1CCCN.O=C([O-])C(F)(F)F [Example 22, 1-(3-aminopropyl)-3-(4-((S)-2-((((Z)-1-(2-aminothiazol-4-yl)-2-(((S)-2,2-dimethyl-4-oxo-1-(sulfooxy)azetidin-3-yl)amino)-2-oxo-ethylidene)amino)oxy)-2-carboxyethoxy)phenyl)-2,5-dimethyl-1H-pyrazol-2-ium 2,2,2-trifluoroacetate]",12.5 µM,12.5 µM
